{
  "source": "PubChem BioAssay AID624171",
  "about": "(National Center for Advancing Translational Sciences (NCATS), 2012)",
  "note": "Hit rate of the full screen: of about 410,000 compounds, about 1,200 (0.29%) were called active. The inconclusive results got no clear call from the source; some entries with a clear call stand among them for comparison. Calls follow the shape of the dose curve; as a rule, active = well fitted activation curve with a large enough effect; inconclusive = small, poorly fitted or top-dose-only effect; inactive = flat fitted curve, though single readings scatter. A potency beside an inconclusive call is a rough fit, not a confirmed value. Potency is read from the fitted curve at half-maximal effect; tags tell the direction and shape of the fitted curve.",
  "data": [
    {"assay": "qHTS of Nrf2 Activators; also: nearly all actives have a fitted effect of over 65% in size", "details": "AREc32 ARE-luciferase reporter (MCF7-derived line), luminescence, 24 h; series mostly up to 46.1 µM", "outline": "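Quantitative high-throughput format: AREc32 reporter cells, 1000 per well, received compound by pin transfer and were incubated 24 hr at 37 deg C, 5% CO2, before Steady-Glo luminescence detection.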", "values": [
      {"smiles": "C=C1CCC[C@]2(C)C[C@H]3OC(=O)C(CN(C)CC(OC)OC)[C@H]3CC12", "note": "(some centres not stated)", "Potency": "inconclusive: 2.24 µM [activator, partial curve, poor fit]"},
      {"smiles": "CC(Cl)C(=O)c1ccc2c(c1)CCN2C(=O)C1CC1", "note": "(configuration not stated)", "Potency": "inconclusive: 20 µM [activator, single point]"},
      {"smiles": "Clc1ccccc1-c1nnc(-c2ccccc2Cl)o1", "Potency": "inconclusive: 10 µM [activator, partial curve, poor fit]"},
      {"smiles": "O=C1C=CC(=O)N1CCCCCCCCCCN1C(=O)C=CC1=O", "Potency": "inconclusive: 3.55 µM [activator, partial curve, poor fit]"},
      {"smiles": "O=C(NCc1ccco1)Nc1ccc2nsnc2c1", "Potency": "active: 22.4 µM"},
      {"smiles": "Cn1nnnc1Sc1ncnc2scc(-c3ccc(-c4ccccc4)cc3)c12", "Potency": "inconclusive: 2.24 µM [activator, partial curve, poor fit]"},
      {"smiles": "O=[N+]([O-])c1ccccc1/C=C/C=N/n1c(-c2ccccc2F)n[nH]c1=S", "Potency": "inconclusive: 15.8 µM [activator, single point]"},
      {"smiles": "O=C(N/N=C/c1cccnc1)c1ccco1", "Potency": "inconclusive: 11.2 µM [activator, partial curve]"},
      {"smiles": "Cn1c(NCc2cccnc2)nc2cc(-c3cccc(C(F)(F)F)c3)sc2c1=O", "Potency": "inconclusive: 2.51 µM [activator, full curve, poor fit]"},
      {"smiles": "O=C(c1cnc(-c2ccccc2)s1)c1ccc(Cl)cc1Cl", "Potency": "inconclusive: 17.8 µM [activator, single point]"},
      {"smiles": "Cc1nn(C)cc1/C=C/C(=O)c1ccccc1", "Potency": "inconclusive: 20 µM [activator, single point]"},
      {"smiles": "CCC1(CC)Cc2ccccc2-c2nc(CCl)[nH]c(=O)c21", "Potency": "inconclusive: 31.6 µM [activator, single point]"},
      {"smiles": "Cc1cccc(C)c1NC(=O)c1nc(S(=O)(=O)Cc2ccccc2)ncc1Cl", "Potency": "inconclusive: 5.62 µM [activator, single point]"},
      {"smiles": "COc1ccc2cc(C(=O)c3ccccc3)c(=O)oc2c1", "Potency": "inactive"},
      {"smiles": "Cc1[nH]c2ccccc2c1C(=O)/C=C/c1ccccc1Cl", "Potency": "inconclusive: 4.47 µM [activator, single point]"},
      {"smiles": "Cc1nnsc1S(=O)c1ccc(Cl)c(Cl)c1", "note": "(configuration not stated)", "Potency": "active: 11.2 µM"},
      {"smiles": "O=C1OC(c2ccc(Cl)cc2)=N/C1=C\\C=C\\c1ccco1", "Potency": "inconclusive: 20 µM [activator, single point]"},
      {"smiles": "COc1ccc(/C=C/c2nc3cc(-c4ccccc4)ccc3o2)cc1O", "Potency": "inactive"},
      {"smiles": "CC(=O)Oc1ccc2occ(C(=O)c3cccs3)c2c1", "Potency": "inconclusive: 17.8 µM [activator, partial curve, poor fit]"},
      {"smiles": "O=C(/C=C/c1ccc(Cl)c([N+](=O)[O-])c1)NCc1cccnc1", "Potency": "inconclusive: 15.8 µM [activator, single point]"},
      {"smiles": "Cn1c(N)c(C(=O)COC(=O)c2cnc(Cl)c(Cl)c2)c(=O)n(C)c1=O", "Potency": "inconclusive: 22.4 µM [activator, single point]"},
      {"smiles": "Nc1nccc(/C=C/c2ccc(Cl)cc2)n1", "Potency": "inconclusive: 22.4 µM [activator, single point]"},
      {"smiles": "COc1ccc(CNC(=O)C2CSC(=O)C2)cc1", "note": "(configuration not stated)", "Potency": "inconclusive: 35.5 µM [activator, partial curve, poor fit]"},
      {"smiles": "O=C1N=C(N2CCCCC2)S/C1=C\\c1ccccc1F", "Potency": "inconclusive: 7.94 µM [activator, partial curve]"},
      {"smiles": "COc1ccc(-c2cc(C(F)(F)F)n3nc(C(=O)NCC45CC6CC(CC(C6)C4)C5)cc3n2)cc1OC", "Potency": "inactive"},
      {"smiles": "CC(=O)Nc1ccc(S(=O)(=O)N2CCN(C(=O)C3COc4ccccc4O3)CC2)cc1", "note": "(configuration not stated)", "Potency": "inactive"},
      {"smiles": "Cc1ccc2ccc3cc(C(=O)N4CCN(c5ccccc5)CC4)nc3c2[nH]1", "Potency": "inactive"},
      {"smiles": "S=c1[nH]nc(-c2ccco2)n1/N=C/c1cccc(Cl)c1", "Potency": "active: 12.6 µM"},
      {"smiles": "Cc1ccc(C2C(C(=O)c3sc(-c4ccccc4)nc3C)=C(O)C(=O)N2CCN(C)C)o1", "note": "(configuration not stated)", "Potency": "inconclusive: 17.8 µM [activator, single point]"},
      {"smiles": "CN(C)C(=S)N=Nc1[nH]c2ccccc2c1O", "Potency": "inconclusive: 11.2 µM [activator, partial curve]"},
      {"smiles": "COc1cc(N2CCCC2)c(OC)cc1/C=C(/C#N)c1cccc(F)c1", "Potency": "inactive"},
      {"smiles": "CCOc1cc(N2CCOCC2)c(OCC)cc1NC(=O)COC(=O)C1CCCN1S(=O)(=O)c1ccccc1F", "note": "(configuration not stated)", "Potency": "inconclusive: 20 µM [activator, single point]"},
      {"smiles": "CCOc1cc(CNc2ccc(O)cc2)cc(Br)c1OCc1ccccc1F", "Potency": "inconclusive: 6.31 µM [activator, full curve]"},
      {"smiles": "N#Cc1ccccc1NC(=O)COc1c(Br)cc(Br)c2cccnc12", "Potency": "inconclusive: 3.16 µM [activator, partial curve]"},
      {"smiles": "CCOc1cccc(C=Nc2cc(C)cc(C)c2O)c1O", "Potency": "inconclusive: 14.1 µM [activator, single point]"},
      {"smiles": "Oc1ccc(NCc2ccc(OCc3ccccc3Cl)cc2)cc1", "Potency": "active: 7.94 µM"},
      {"smiles": "CC(=O)OCC1=C(C(=O)O)N2C(=O)[C@@H](NC(=O)Cc3ccccc3)[C@H]2SC1", "Potency": "inactive"},
      {"smiles": "CN1N=C(C(C)(C)C)CC1=O", "Potency": "inconclusive: 22.4 µM [activator, single point]"},
      {"smiles": "Cc1csc2ncnc(N3CCN(C(=O)Nc4ccc(OC(F)(F)F)cc4)CC3)c12", "Potency": "inactive"},
      {"smiles": "CCCOc1ccccc1C1Oc2nc(SC)nnc2-c2ccccc2N1C(C)=O", "note": "(configuration not stated)", "Potency": "inactive"},
      {"smiles": "O=C(NC(=S)N1CCCc2ccccc21)c1ccco1", "Potency": "inconclusive: 35.5 µM [activator, single point]"},
      {"smiles": "Cc1ccc(/C=C/C(=O)Nc2cccc(S(=O)(=O)N3CCOCC3)c2)o1", "Potency": "inactive"},
      {"smiles": "CC1CCc2c(C(=O)Nc3nccs3)csc2C1", "note": "(configuration not stated)", "Potency": "inactive"},
      {"smiles": "O=S(=O)(c1ccccc1)c1nc(-c2ccc(F)cc2)oc1N1CCCCCC1", "Potency": "inactive"},
      {"smiles": "COC(=O)c1c(NC(=O)/C=C/C(=O)O)sc(C)c1-c1ccc(C)c(C)c1", "Potency": "active: 17.8 µM"},
      {"smiles": "COc1ccccc1C(=O)Nc1ccc(S(=O)(=O)Nc2cc(C)on2)cc1", "Potency": "inactive"},
      {"smiles": "O=C(C(=Cc1ccccc1)c1ccccc1)c1ccccc1", "Potency": "inconclusive: 31.6 µM [activator, single point]"}
    ]}
  ]
}
